# Laboratory results as given in PubChem BioAssay (Tox21).
# Several values for one entry are separate records, joined by “and”; a condition that tells them apart may be missing. Equal values may be shown once. Inconclusive means that the source gave no clear call. Such entries were picked first, then a sample of the others. Potencies of inconclusive entries are doubtful fits and often do not repeat. The source holds several records for some structures; these can differ, active in one and inactive in another. Activity calls are given as the source filed them. Calls follow the shape of the dose curve; as a rule, active = well fitted curve in the direction sought with a large enough effect in the repeat runs; inconclusive = weak or mixed curves; inactive = no such curve, though single readings can be large; an effect the other way counts as inactive or inconclusive.
# Test: qHTS RealTime-Glo MT Cell Viability Assay in HEK293 cells - 0 hour (AID 1224880); also: nearly all actives have a fitted effect of over 45% in size
# Conditions: RealTime-Glo luminescence; series mostly up to 76.8 µM
# Procedure, shortened: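 Real-time viability in HEK293: signal arises when living cells convert a prosubstrate for NanoLuc in the medium, so luminescence tracks viable cell number. Compound (23 nL, DMSO) added 5 h post-seeding; kinetic reads at 0–40 h, 37 C.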
# Potency is read from the fitted curve at half-maximal effect; tags tell the direction and shape of the fitted curve.
row,Structure (SMILES),Potency
1,Oc1ccc(Cl)cc1Cc1ccccc1,"inconclusive: 22.1 µM [falling, partial curve]"
2,CCN(CC)C(=S)S,"inconclusive: 0.197 µM [falling, single point]"
3,CCCCCCCCCCCCn1cc[n+](C)c1,"inconclusive: 43.6 µM [rising, partial curve]"

# Test: A CellTox Green Cytotoxicity Assay to monitor cytotoxicity in HEK293 cells - 32 hour (AID 1224881); also: nearly all actives have a fitted effect of over 40% in size
# Conditions: CellTox Green fluorescence; series mostly up to 76.8 µM
# Procedure, shortened: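 Cells (HEK293, 600/well) and dye reagent are dispensed together. After 5 h at 37 C, 23 nL compound is pinned in. Plates stay at 37 C for 40 h with fluorescence read at 0h, 8h, 16h, 24h, 32h and 40h.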
row,Structure (SMILES),Potency
1,Oc1ccc(Cl)cc1Cc1ccccc1,active: 12.3 µM and active: 22.1 µM and active: 21.3 µM
2,Clc1ccc(C(c2ccc(Cl)cc2)C(Cl)Cl)cc1,"inconclusive: 55.8 µM [activator, single point] and active: 49 µM"
3,CCCCCCCC[N+](C)(CCCCCCCC)CCCCCCCC,active: 17.3 µM and active: 27.6 µM and active: 11 µM
4,CCN(CC)C(=S)S,active: 17.5 µM and active: 4.87 µM and active: 11 µM
5,C=CCC1=C(C)C(OC(=O)C2C(C=C(C)C)C2(C)C)CC1=O (centres undefined),active: 51.9 µM
6,CNP(=O)(OC)Oc1ccc(C(C)(C)C)cc1Cl (centres undefined),"inconclusive: 54.9 µM [activator, single point]"
7,O=CC(Br)(Br)Br,"inconclusive: 2.18 µM [activator, full curve, poor fit]"
8,N#CSCSC#N,"inconclusive: 12.6 µM [activator, full curve, poor fit]"
9,CCCCCCCCCCCCn1cc[n+](C)c1,"inconclusive: 55.4 µM [activator, single point]"
10,Cc1ccc2cc3c(ccc4ccccc43)c3c2c1CC3,inactive
11,O=S1OC[C@@H]2[C@H](CO1)[C@]1(Cl)C(Cl)=C(Cl)[C@@]2(Cl)C1(Cl)Cl (some centres undefined),"inconclusive: 54.9 µM [activator, single point]"
